Reference: PubChem BioAssay AID1745853 (National Center for Advancing Translational Sciences (NCATS), 2022)
This is one part of the list. Further columns of the screen follow, without active or inactive calls.

Experiments:
Test in all cases: Primary Screen for Target Class Profiling of Small Molecule Inhibitors of Methyltransferases
[1] = biological target: Glycine N-methyltransferase (Homo sapiens) (UniProt Q14749); details: purified enzyme, MTase-Glo SAH luminescence; measured here: GNMT inhibition; at 40 µM; stronger effect = lower value
Outline: (§1)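 Each enzyme was reacted with SAM and its substrate, with compounds tested once at 40 uM; SAH formed was read by MTase-Glo luminescence.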

[2] = biological target: Guanidinoacetate N-methyltransferase (Homo sapiens) (UniProt Q14353); details: purified enzyme, MTase-Glo SAH luminescence; measured here: GAMT inhibition; at 40 µM; stronger effect = lower value
Outline: as §1

[3] = biological target: Histamine N-methyltransferase (Homo sapiens) (UniProt P50135); details: purified enzyme, MTase-Glo SAH luminescence; measured here: HNMT inhibition; at 40 µM; stronger effect = lower value
Outline: as §1

[4] = biological target: Nicotinamide N-methyltransferase (Homo sapiens) (UniProt P40261); details: purified enzyme, MTase-Glo SAH luminescence; measured here: NNMT inhibition; at 40 µM; stronger effect = lower value
Outline: as §1

[5] = biological target: Phenylethanolamine N-methyltransferase (Homo sapiens) (UniProt P11086); details: purified enzyme, MTase-Glo SAH luminescence; measured here: PNMT inhibition; at 40 µM; stronger effect = lower value
Outline: as §1
On the % scale 0 is the no-effect control and ±100 the full control effect.

Structure (SMILES) | activity change, negative = inhibition [1] | activity change, negative = inhibition [2] | activity change, negative = inhibition [3] | activity change, negative = inhibition [4] | activity change, negative = inhibition [5]
CC(C)NC(=O)c1ccccc1OCC1CCCN(Cc2cn(C)c3ccccc23)C1 (stereo not given) | -4.9% | -6.28% | -60.4% | -16% | -0.179%
CN1CCN(CCCNC(=O)C2CCc3sc(C(=O)N4CCCCCC4)cc3C2)CC1 (stereo not given) | -3.02% | 0.135% | -7.22% | -4.01% | -3.25%
CNC(=O)[C@H]1O[C@@H](n2cnc3c(NCc4cccc(I)c4)ncnc32)[C@H](O)[C@@H]1O | -3.47% | 2.66% | -11.4% | -9.32% | -3.95%
CCc1ccc(CNC(=O)c2cc3n(n2)CC(C)(C(=O)NC2CCCCC2)N(C)C3=O)cc1 (stereo not given) | -3.62% | -4.67% | 2.04% | -3.89% | -7.07%
CC(C)c1nccn1CCCNC(=O)c1ccc(N2CCCC(CO)C2)nc1 (stereo not given) | -8.77% | -15.8% | -66.6% | -17.3% | -11.4%
CCc1ccc(CNC(=O)c2ncn3c2C(=O)N(C2CC2)C(C)(C(=O)NCc2cccc(C)c2)C3)cc1 (stereo not given) | 1.68% | 5.66% | 14.8% | 2.4% | 10.4%
COc1ccc(CNC(=O)Cn2ccc3cc(S(=O)(=O)N4CCCCC4)ccc32)c(OC)c1 | 4.68% | 0% | 5.77% | -9.86% | 5.29%
O=C(c1cnccn1)N1CCC(c2nc(C3CC3)no2)C1 (stereo not given) | 0.827% | 2.05% | 2.57% | -1.79% | 0.074%
CCOC(=O)c1cc2n(n1)CC(C)(C(=O)NCCC(C)C)N(Cc1ccc3c(c1)OCO3)C2=O (stereo not given) | -0.116% | 0% | -0.872% | 3.01% | -3.13%
COCCc1noc(-c2ccc(N(C)Cc3ccnc(C)c3)nc2)n1 | 0.088% | 1.28% | -4.7% | -3.1% | 2.8%
C=C1C(=O)O[C@@H]2/C=C(\C)C(=O)/C=C/[C@](C)(O)C[C@@H](OC(=O)C(C)C)[C@@H]12 | 0% | 1.79% | 6.33% | -13.7% | -9.04%
O=C(Nc1ccc2c(N3CCOCC3)ncnc2c1)c1cccc(Cl)c1 | -52.3% | -42.2% | -83.1% | -39% | -23.7%
CC1(C(=O)NC2CCCC2)Cn2c(cc3sccc32)C(=O)N1Cc1ccccc1Cl (stereo not given) | -1.32% | 3.88% | 2.35% | -9.04% | -5.3%
COC(=O)c1cc2n(n1)CC(C)(C(=O)NC1CCCCCC1)N(Cc1cccc(OC)c1OC)C2=O (stereo not given) | 0.484% | 6.4% | -3.96% | -5.06% | 0.883%
CC(C)Cn1c(=O)c2ccccc2n2c(SCC(=O)Nc3ccc(F)cc3)nnc12 | -0.705% | 0% | 10.8% | -5.91% | 3.91%
COc1ccc(CNC(=O)c2cc3n(n2)CC(C)(C(=O)NCc2ccc(C)cc2)N(C)C3=O)cc1 (stereo not given) | 8.12% | 0.553% | 5.57% | 8.83% | 6.84%
COCC1OC(n2cnc3c(=O)[nH]cnc32)C(O)C1O (stereo not given) | 5.76% | 6.36% | -7.02% | -5.76% | -0.003%
CN(C)S(=O)(=O)c1ccc(CNC(=O)C2CCCN(CC(N)=O)C2)cc1 (stereo not given) | -3.84% | -6.38% | -2.8% | -6.86% | 2.02%
COCCN(C)C[C@@H]1CN(C(=O)Cn2ncc3ccccc3c2=O)C[C@@H]1CO | -8.29% | -9.95% | -6.81% | -13.7% | -17.9%

Structure (SMILES) | activity change, negative = inhibition [1] | activity change, negative = inhibition [2] | activity change, negative = inhibition [3] | activity change, negative = inhibition [4] | activity change, negative = inhibition [5]
CCCn1c(=O)c2ccccc2n2c(SCC(=O)NC3CCCCC3)nnc12 | 3.17% | 6.3% | 4.5% | 1.16% | 3.82%
Cc1ccccc1NC(=O)N1CCC(N(CCC(C)C)C2CCOCC2)CC1 | -5.87% | -6.8% | -1.67% | -9.7% | -1.65%
CC1=C(CC/C(C)=C/C(=O)O)[C@@]2(C)CCCC(C)(C)C2CC1=O (stereo not given in full) | -5.37% | -3.92% | 6.32% | -20.4% | 1.64%
CC1(C(=O)NC2CCCCC2)Cn2c(nc3ccccc32)C(=O)N1Cc1ccc(F)cc1 (stereo not given) | 1.62% | 0% | 2.73% | 2.78% | -2.68%
CN(CCc1ccccn1)C(=O)c1cn(Cc2cccc(C(F)(F)F)c2)nn1 | -4.2% | -6.6% | -1.61% | -10.7% | -8.4%
COC1CC(=O)C23C(=O)NC(CC(C)C)C2C(C)C(C)=CC3/C=C(\C)CCC1O (stereo not given) | 1.82% | 8.29% | 7.01% | -6.95% | 4.98%
O=C(c1ccc2nccnc2c1)N1CCCCC1 | 7.34% | 6.93% | 4.38% | -6.5% | 2.3%
Fc1cccc(Nc2ncc(-c3cncnc3)c3c2OCC3)c1 | -6.66% | -7.33% | -4.29% | -9.51% | -9.44%
Nc1cc(C(=O)N2CCc3onc(-c4ccc(-c5ccccc5)cc4)c3C2)[nH]n1 | -7.87% | -2.43% | -4.82% | -2.86% | -0.434%
COc1cccc(CNC(=O)Cn2nc3n(CC(C)C)c(=O)c4ccccc4n3c2=O)c1 | -5.86% | 2.39% | -3.63% | -12.9% | -11.6%
CCc1nnc2ccc(NC3CC3)nn12 | -8.06% | -6.29% | -3.1% | -18.1% | -12.1%
CC(=O)OCC1OC(OC2COC(OC3COC(OC4C(OC5C(CO)OC(OC6CCC7(C)C(CCC8(C)C7CC=C7C9CC(C)(C)CCC9(C(=O)OC9OC(CO)C(O)C(O)C9OC9OCC(OC%10OCC(O)(CO)C%10O)C(O)C9O)C(O)CC78C)C6(C)C)C(O)C5O)OCC(O)C4O)C(O)C3O)C(O)C2O)C(OC(=O)/C=C/c2ccccc2)C(O)C1OC(C)=O (stereo not given) | 0.243% | 17.5% | 10.9% | 7.15% | 7.43%
C=CCn1cc(CN(CC)Cc2ccc(OC)cc2)c(C)n1 | -4.3% | -6.67% | -2.22% | -14.6% | -14.7%
O=C(NC1CCOCC1)c1ccc(-c2cc(-c3cn[nH]c3-c3ccccn3)ccn2)cc1 | -7.56% | 2.67% | 6.08% | -12.3% | 0.89%
COc1ccccc1CNC(=O)c1cc2n(n1)CC(C)(C(=O)NCc1ccc(C)cc1)N(C)C2=O (stereo not given) | 5.3% | 0% | 4.72% | 3.72% | 4.04%
C/C=C(\C)C1C(C)=CC2CCC(OS(=O)(=O)O)C(C)C2C1/C=C/C=C/C(=O)O (stereo not given) | -7.38% | -5.62% | 4.5% | -19.5% | 0.266%
C[C@@]12CC3(S(=O)(=O)O)OC(O1)[C@]1(COC(=O)c4ccccc4)[C@H]3C[C@]21O[C@@H]1O[C@H](CO)[C@@H](O)[C@H](O)[C@H]1O | -1.8% | -7.5% | -7.84% | -15.5% | -3.5%
CCc1noc(-c2cn(C3CCCN(C(=O)COc4cccc(C)c4)C3)nn2)n1 (stereo not given) | -3.17% | -0.03% | 0.283% | -7.43% | -2.06%
